# Out of some 310,000 compounds screened, about 14,000 (4.5%) showed an effect of 50% or more. The effect is printed as a negative number. Some of the results follow.
# Molecular target: human ether-à-go-go-related gene (hERG) potassium channel (human, UniProt Q12809)
# Assay: primary screen, population patch clamp on CHO cells stably expressing hERG
# 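Also: peak tail current of the secondary pulse compared with the same well before compound.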
# Chain of human ether-à-go-go-related gene (hERG) potassium channel (Q12809 whole entry, looked up): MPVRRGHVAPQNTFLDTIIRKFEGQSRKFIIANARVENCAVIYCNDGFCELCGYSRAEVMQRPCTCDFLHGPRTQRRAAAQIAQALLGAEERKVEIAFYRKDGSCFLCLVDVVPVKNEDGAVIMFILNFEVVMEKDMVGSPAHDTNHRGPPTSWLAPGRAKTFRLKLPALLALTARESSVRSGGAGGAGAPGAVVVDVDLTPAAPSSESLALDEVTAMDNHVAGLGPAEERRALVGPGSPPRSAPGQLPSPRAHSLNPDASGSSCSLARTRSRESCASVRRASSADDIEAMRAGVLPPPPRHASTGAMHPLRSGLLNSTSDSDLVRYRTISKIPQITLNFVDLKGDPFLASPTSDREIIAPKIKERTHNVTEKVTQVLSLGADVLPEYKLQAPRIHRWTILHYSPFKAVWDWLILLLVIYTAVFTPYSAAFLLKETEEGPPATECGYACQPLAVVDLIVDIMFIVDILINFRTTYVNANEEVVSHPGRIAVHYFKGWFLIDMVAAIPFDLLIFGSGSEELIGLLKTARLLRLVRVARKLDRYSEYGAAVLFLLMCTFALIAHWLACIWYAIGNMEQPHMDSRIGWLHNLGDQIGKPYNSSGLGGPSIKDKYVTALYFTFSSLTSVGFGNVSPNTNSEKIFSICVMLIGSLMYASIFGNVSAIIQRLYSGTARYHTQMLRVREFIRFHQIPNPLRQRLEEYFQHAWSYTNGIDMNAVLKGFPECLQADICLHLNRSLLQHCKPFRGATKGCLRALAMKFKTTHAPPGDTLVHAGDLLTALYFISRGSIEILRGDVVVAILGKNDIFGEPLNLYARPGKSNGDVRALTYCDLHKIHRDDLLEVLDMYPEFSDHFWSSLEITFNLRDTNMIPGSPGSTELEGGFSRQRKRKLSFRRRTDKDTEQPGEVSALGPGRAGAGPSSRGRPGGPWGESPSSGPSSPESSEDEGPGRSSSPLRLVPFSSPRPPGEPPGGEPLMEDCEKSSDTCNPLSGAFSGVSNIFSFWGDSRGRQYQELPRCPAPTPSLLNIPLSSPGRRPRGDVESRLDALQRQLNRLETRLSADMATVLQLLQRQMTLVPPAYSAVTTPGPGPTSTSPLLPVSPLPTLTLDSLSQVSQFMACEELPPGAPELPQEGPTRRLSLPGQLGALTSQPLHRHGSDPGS
row,SMILES,"hERG current change (%, negative = inhibition) at 10uM [%]"
1,Cc1c(CCC(=O)NCCCn2ccnc2)c(=O)oc2c(C)c3oc4c(c3cc12)CCCC4,-31.3
2,CCNC(=S)NNC(=O)C1CCN(Cc2ccccc2)CC1,23.2
3,CNC(=O)C1CCN(S(=O)(=O)c2c(C)noc2/C=C/N(C)C)CC1,-1.72
4,Cc1cc(Cl)ccc1Oc1nc(-c2ccccc2)ncc1S(C)(=O)=O,9.48
5,O=C1c2ccccc2C(=O)N1CCc1nc2ccccc2c(=O)n1-c1ccccn1,11.6
6,O=C(Nc1ccc(-c2nc3cccnc3s2)cc1)C1CCCO1 (centres unmarked),8.69
7,C=CCn1c(O)c(C(C)=Nc2ccc(C(=O)OCC)cc2)c(=O)[nH]c1=O,-13.8
8,COc1cc(C(=O)Sc2ccc(C)cc2)cc(OC)c1OC,5.26
9,O=C(c1cnsn1)N1CCC(CO)(Cc2cccc(F)c2)CC1,10.8
10,O=C(CCC(=O)Nc1ccccc1)NNC(=O)c1cccs1,13.2
11,O=C(O)C1C2c3ccccc3C(c3ccccc32)C1C(=O)Nc1ccccc1 (centres unmarked),6.76
12,O=C(c1ccc(Br)o1)N1CCN(c2ccccn2)CC1,-19.3
13,Cc1ccc(OCc2ccc(C(=O)N3CCOCC3)cc2)cc1C,-12.7
14,CC(C)CN1C(=O)c2ccc(C(=O)NCc3ccccn3)cc2C1=O,-1.96
15,CCCCNS(=O)(=O)c1ccc2nc(-c3cccnc3)cc(C(=O)NC3CCCC3)c2c1,13.1
16,O=C(CCc1ccc(S(=O)(=O)N2CCOCC2)cc1)N1CCCC1,4.91
17,CSc1ccccc1NC(=O)c1ccccc1C,-14.5
18,Cc1nn(C)c(C)c1NC(=O)CSc1nc(C2CC2)nc2c1cnn2-c1ccccc1,1.91
19,O=C(Cn1ccnc1)c1ccc(O)c(O)c1,7.66
20,Cc1onc(-c2c(Cl)cccc2Cl)c1/C(N)=N/OC(=O)N(C)C,9.17
21,COc1cccc(OCCNc2ccc([N+](=O)[O-])cn2)c1,-31.5
22,O=C(Nc1nnc(SCC(=O)N2CCCc3ccccc32)s1)c1ccc2ccccc2c1,8.28
23,COC(=O)c1cc(Br)c(=O)n(-c2cc(C)on2)c1,15.4

row,SMILES,"hERG current change (%, negative = inhibition) at 10uM [%]"
1,N/C(=N\OC(=O)CSc1ccccc1)c1cccc([N+](=O)[O-])c1,-8.22
2,Fc1ccc(CSc2nnc(-c3ccco3)o2)cc1,-6.74
3,C=CCNC(=O)C1CCC(C(=O)NCC=C)CC1 (centres unmarked),3.04
4,O=C(CSc1ncccc1C(=O)O)c1ccc2ccccc2c1,3.37
5,CC(=O)Nc1ccc(S(=O)(=O)NCCCN2CCOCC2)cc1,16
6,CCCCn1c(N)c(N(CC(C)C)C(=O)c2cc(C)nc3ccccc23)c(=O)[nH]c1=O,9.03
7,O=C(CCC(=O)N1CCN(Cc2ccc(F)cc2)CC1)Nc1nnc(C2CCCCC2)s1,6.92
8,Cc1ccc(CNC(=O)C(Cc2ccccc2)NS(=O)(=O)c2ccc3c(c2)CCC(=O)N3)cc1 (centres unmarked),-23.3
9,CC(C)CCn1c(=O)c2c(nc3n2CCCN3Cc2ccccc2)n(C)c1=O,-37.7
10,CCOC(=O)Cn1nc(-c2ccccc2)c2ccccc2c1=O,-8.08
11,CCCCN(CC)CCCNC(=O)CC1Nc2ccccc2NC1=O (centres unmarked),1.98
12,Cc1ccccc1NC(=S)N(C)Cc1cccs1,-7.89
13,Cc1ccc(OCCCN2C(=O)C(=O)c3cccc(C)c32)cc1,13.1
14,CCN(CCn1cccn1)C(=O)CCc1nnc(CCc2ccccc2OC)o1,5.73
15,CC(CCc1ccccc1)NC(=O)COC(=O)c1cc(NS(=O)(=O)c2ccc(Cl)c([N+](=O)[O-])c2)ccc1O (centres unmarked),14.1
16,CC(=O)c1cc(C#N)c(SCC(=O)O)nc1C,2.02
17,O=C(COc1ccccc1Cl)Nc1ccc(Cl)cn1,20
18,Cn1c(=O)c2ccccc2n(Cc2ccccc2Cl)c1=O,0.661
19,CCc1ccc(C(C(=O)NC2CCCC2)N(C(=O)/C=C/C(=O)Nc2cc(C)on2)c2ccccc2C)cc1 (centres unmarked),9.58
20,CC1CCCC(NC(=O)c2ccc(F)c(S(=O)(=O)N3CCOCC3)c2)C1C (centres unmarked),4.67
21,CC1(NC(=O)CCNC(=O)c2ccc(C(C)(C)C)cc2)CCS(=O)(=O)C1 (centres unmarked),4.38
22,CC(Oc1ccc(Cl)cc1)c1ccnc(N)n1 (centres unmarked),14.4
23,COc1cc2c(cc1OC)CN(C(=O)Cc1c(F)cccc1Cl)CC2,11.1

row,SMILES,"hERG current change (%, negative = inhibition) at 10uM [%]"
1,COc1ccccc1-c1nc2n(n1)C(c1cccs1)C(C(=O)Nc1cccnc1)=C(C)N2 (centres unmarked),-31.7
2,CCn1cc(C(=O)NCC2CCCO2)c(=O)c2cc(S(=O)(=O)N3CCCCC3)ccc21 (centres unmarked),-34
3,c1ccc(Nc2n[nH]nc2-c2ccccc2)cc1,-39.5
4,O=C(NCc1ccco1)c1cccc(NS(=O)(=O)c2ccccc2F)c1,-6.09
5,C=C1c2ccccc2S(=O)(=O)N(Cc2ccccc2)C1COCc1ccccc1 (centres unmarked),-3.54
6,N#Cc1ccccc1OCC(=O)NNC(=O)CNC(=O)c1cccc(Br)c1,0.905
7,O=C(Nc1ccc(N2CCCCC2)cc1)c1ccc(F)cc1F,9.43
8,O=C(CN1CCCCCCC1)N/N=C/c1ccc(F)c(F)c1,-33.7
9,Cc1cccc(N(C(=O)CNC(=O)c2cccs2)C(C(=O)NC2CCCC2)c2cccnc2)c1 (centres unmarked),1.66
10,O=[N+]([O-])c1cc(F)c(N2CCCCC2)cc1N1CCOCC1,-31.8
11,COc1ccccc1C(=O)N/C(=C/c1ccc(Br)cc1)C(=O)N1CCCC1,-48.9
12,COc1nc(N)nc(CC(=O)C2CC2)n1,10.2
13,O=C(CN1CCN(S(=O)(=O)c2cccc(Cl)c2)CC1)N1CCCCC1,-24.8
14,Cc1cc(C)n(C(=O)CNc2ccccc2Cl)n1,13.5
15,Cc1cc(NC(=O)/C=C/c2ccco2)ccc1NC(=O)c1ccccc1,15.5
16,O=C(O)c1ccc(/C=N/n2c(C3CCCCC3)n[nH]c2=S)cc1,17.2
17,CCCC(C)c1nnc(NC(=O)COc2ccc3c(c2)OCO3)s1 (centres unmarked),8.27
18,CCc1ccc(NC(=O)C(=O)N/N=C(\C)CC(=O)NCCOC)cc1,-2.99
19,Cn1nnnc1SCc1cc(=O)n2ccsc2n1,2.28
20,Cc1nn(C)c(Oc2cccc(C(F)(F)F)c2)c1C#N,-7.4
21,COC(=O)c1c(NC(=O)C2=COCCO2)sc(C)c1C,2.14
22,CC(=O)c1cc(C#N)c(Oc2ccc(F)cc2)nc1C,13.7
23,COc1cccc(NC(=O)COC(=O)Cc2ccc(Cl)cc2)c1,10.7

row,SMILES,"hERG current change (%, negative = inhibition) at 10uM [%]"
1,Cc1nn(C)cc1/C=N\NC(=O)c1csc2c1CCCC2,23.2
2,CCOP(=O)(OCC)c1nc(-c2cccc3ccccc23)oc1NCc1ccccc1,10.2
3,CCNC(=O)COC(=O)c1cc(C)nc2ccccc12,-2.84
4,Cn1c(=O)cc(Nc2ccccc2)c2c(=O)n(-c3ccccc3)c(=O)n(-c3ccccc3)c21,-16.5
5,Cc1cc(N)n2nc(C)c(-c3ccc(Cl)cc3)c2n1,-4.26
6,COc1cc(CNCCc2ccccc2)ccc1OCC(N)=O.Cl,-17.4
7,O=C(CC(=O)NN=C1CCCC1)NCCc1ccccc1,3.81
8,O=c1c(-c2nnc(SCc3ccc(Cl)cc3Cl)o2)cccn1Cc1ccccc1,-62.5
9,CC1(C)CC(=O)C(N=Nc2c(Cl)cc(Cl)cc2Cl)=C(O)C1,27.6
10,O=C(CN1CCN(C(=O)c2ccccc2)CC1)Nc1ncc(Br)cc1Br,-78.1
11,O=C(CSc1nnc(-c2ccncc2)n1CC1CCCO1)Nc1nccs1 (centres unmarked),16.9
12,COc1ccc(-c2nnc(SCC(=O)N(Cc3ccccc3)C(C)(C)C)o2)cc1OC,-22.9
13,CN(Cc1cccnc1)Cc1cn(C)nc1-c1cccc(Cl)c1,-39.7
14,O=C(Cn1ccc(C(F)(F)F)n1)N=Nc1c(O)[nH]c2ccc(Br)cc12,-12
15,CC(=O)CC(C)(C)S(=O)(=O)c1ccc(Oc2ccc(S(=O)(=O)C(C)(C)CC(C)=O)cc2)cc1,-5.22
16,Cl.O=C(c1c(F)cccc1F)N(Cc1ccccn1)C1CC1,3.16
17,C=CCOc1ccc(C2/C(=C(/O)c3ccc4c(c3)CC(C)O4)C(=O)C(=O)N2CCCN2CCOCC2)cc1 (centres unmarked),14
18,CCCC[C@@H]1CCCO[C@@](C(=O)NCc2cc(C)n(C)n2)(C(F)(F)F)C1,-2.7
19,COc1ccc(NC(=O)CCNC(=O)Cn2ccc3ccccc3c2=O)cc1OC,14.2
20,CC(=O)c1coc2ccc(OCCN3CCCCC3)cc12,-10.3

# — PMC4336329 (PLoS ONE, 2015)
